According to paper PMC6919601, “Identification of Plasmodium dipeptidyl aminopeptidase allosteric inhibitors by high throughput screening” (PLoS ONE, 2019):
About 230 (0.21%) of roughly 110,000 compounds showed an effect of 50% or more. Some of the results follow.

biological target: DPAP1 (Plasmodium falciparum, UniProt Q8IIJ9); test: primary screen, percent inhibition; read by cleavage of a fluorogenic dipeptide substrate; higher = more effect of the substance; design: species or system P. falciparum D10 trophozoite lysates; single well
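Also: 30 min substrate incubation versus DMSO and 10 µM JCP410 controls.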

Chain of DPAP1 (Q8IIJ9 whole entry, looked up): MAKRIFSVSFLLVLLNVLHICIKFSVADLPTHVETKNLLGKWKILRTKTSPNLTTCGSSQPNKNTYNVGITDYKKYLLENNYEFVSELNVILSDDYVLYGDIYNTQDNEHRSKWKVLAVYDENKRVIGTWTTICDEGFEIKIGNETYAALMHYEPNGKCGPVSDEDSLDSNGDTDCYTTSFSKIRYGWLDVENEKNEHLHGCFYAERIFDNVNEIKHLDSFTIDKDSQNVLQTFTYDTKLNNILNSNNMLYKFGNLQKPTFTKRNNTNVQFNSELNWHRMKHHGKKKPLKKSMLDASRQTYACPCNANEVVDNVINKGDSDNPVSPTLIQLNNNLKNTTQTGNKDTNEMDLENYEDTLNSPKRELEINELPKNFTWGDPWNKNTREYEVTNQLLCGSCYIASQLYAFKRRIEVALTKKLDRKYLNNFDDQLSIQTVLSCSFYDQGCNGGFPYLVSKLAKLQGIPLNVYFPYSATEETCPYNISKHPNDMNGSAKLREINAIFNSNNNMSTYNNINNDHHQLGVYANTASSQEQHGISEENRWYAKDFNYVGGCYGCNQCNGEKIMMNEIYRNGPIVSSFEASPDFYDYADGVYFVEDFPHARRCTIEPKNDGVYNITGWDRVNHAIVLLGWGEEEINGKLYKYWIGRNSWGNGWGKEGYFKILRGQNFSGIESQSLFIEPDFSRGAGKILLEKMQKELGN

Going from `CC(=O)Nc1ccc(S(=O)(=O)Nc2cccc(Cl)c2Cl)cc1` to `CC(=O)Nc1ccc(S(=O)(=O)Nc2nc(-c3ccc(C(C)(C)C)cc3)cs2)cc1`, the “% Inhibition @ 10 uM” value falls from 4.57% to 1.83%.

Compared with `CCOC(=O)c1ccc2c(c1)c(C)c(C)n2Cc1ccccc1`, `COc1ccc2c(c1)c1c(c(=O)n(CCc3ccccc3)c(=O)n1CC(N)=O)n2C` is lower in “% Inhibition @ 10 uM” value: 0.605% for the first, -0.913% for the second.

Compared with `O=C(Nc1nccs1)/C(NC(=O)c1ccccc1)=C(/Cl)c1ccccc1`, `O=S(=O)(/C=C/c1ccccc1)NCc1ccccc1` is lower in “% Inhibition @ 10 uM” value: -1.29% for the first, -1.32% for the second.

First: CC1CCC(C(C)C)C(OCC(O)CNC(C)C)C1 (centres unmarked)
Second: CC(C)C[C@H](NC(=O)c1ccccc1Cl)C(=O)NCC#N
The “% Inhibition @ 10 uM” value of the first is higher: 1.63% for the first, -3.04% for the second.

First: CCOC(=O)N1CCC(c2cc(O)n3nccc3n2)CC1
Second: CC1CCN(C(=O)CCC(=O)N2Cc3ccccc3Oc3ncccc32)CC1
The “% Inhibition @ 10 uM” value of the first is lower: -1.03% for the first, 4.36% for the second.

Compared with `CCn1cc(C(=O)NCCCN2CCOCC2)c2cc(OC)c(OC)cc2c1=O`, `COc1ccc(-c2cc3c(=O)n(CC(=O)NCCN4CCOCC4)ncn3n2)cc1` is higher in “% Inhibition @ 10 uM” value: -6.6% for the first, 9.77% for the second.

First: CCOC(=O)c1c(C)oc2ncnc(NCc3cccnc3)c12
Second: CCOc1ccc(N(C(C)C(=O)Nc2c(C)cccc2C)S(C)(=O)=O)cc1 (centres unmarked)
The “% Inhibition @ 10 uM” value of the first is lower: -2.19% for the first, 7.55% for the second.

Compared with `COc1cccc(NC2=C(Cl)C(=O)N(c3ccccc3)C2=O)c1`, `O=C1OC(c2ccc(Cl)cc2)=N/C1=C\c1coc2ccccc2c1=O` is higher in “% Inhibition @ 10 uM” value: 6.84% for the first, 7.31% for the second.

First: COc1ccc(CCNC(=O)CCn2nc(-c3ccc(Cl)cc3)ccc2=O)cc1OC
Second: COc1ccc(NC(=O)COc2ccc(/C=C3\SC(N)=NC3=O)cc2OC)cc1
The “% Inhibition @ 10 uM” value of the first is higher: -0.267% for the first, -1.51% for the second.

Going from `O=C1OC(c2ccco2)=N/C1=C\c1ccco1` to `COc1ccc(-c2cc(C)no2)cc1S(=O)(=O)N(CCN1CCOCC1)Cc1ccco1`, the “% Inhibition @ 10 uM” value rises from 1.12% to 2.41%.

Compared with `COc1cccc(CNC(=O)c2ccc3c(c2)sc2nc(-c4ccc(F)cc4)cn23)c1OC`, `CC(=O)N1N=C(c2ccc(Br)cc2)CC1c1ccc(F)cc1` (centres unmarked) is lower in “% Inhibition @ 10 uM” value: -0.613% for the first, -3.13% for the second.

Going from `C=C(C)CSC1=C(C#N)C(c2ccc(Cl)cc2Cl)CC(=O)N1` (centres unmarked) to `COc1ccc(OC)c(C2CC(=O)C3=C(C2)NC(=O)CC3c2ccc(Cl)cc2Cl)c1` (centres unmarked), the “% Inhibition @ 10 uM” value falls from 4.52% to -1.7%.

First: CCCCn1c(CCCO)nc2ccccc21
Second: Cn1c(C(=O)O)c(CNCCCN2CCc3ccccc3C2)c2ccccc21
The “% Inhibition @ 10 uM” value of the first is lower: -2.04% for the first, 5.09% for the second.

Going from `O=C(O)/C=C/C(=O)N1CCCc2ccccc21` to `O=C(O)C1CCCCC1C(=O)N1CC=C(c2ccccc2)CC1` (centres unmarked), the “% Inhibition @ 10 uM” value falls from -0.239% to -2.9%.

First: Cc1cc(C)c2c(/N=C/N(C)C)c(C(=O)N3CCN(c4ncccn4)CC3)sc2n1
Second: Cc1nc2c(-c3ccc(F)cc3)c(C)nn2c(C)c1CCC(=O)N1CCCC1
The “% Inhibition @ 10 uM” value of the first is lower: -3.37% for the first, -0.465% for the second.

Compared with `Oc1ccc(Nc2ccnc3cc(Cl)ccc23)cc1`, `O=C(Nc1ccc2c(c1)OCO2)c1ccc([N+](=O)[O-])cc1` is lower in “% Inhibition @ 10 uM” value: 13.1% for the first, 1.35% for the second.

First: CC(C)Cc1cc(C(=O)N2CCN(Cc3noc(CCC(=O)N4CCCCCC4)n3)CC2)no1
Second: Cc1cccc(-c2noc(CCC(=O)N3CCOCC3)n2)c1
The “% Inhibition @ 10 uM” value of the first is higher: 0.359% for the first, -0.666% for the second.

Compared with `Cc1cc(=O)n2nc(N(C)CC(=O)NCCCOC(C)C)sc2n1`, `CC(=O)NCC/N=C(\C)c1sc2ccccc2c1O` is lower in “% Inhibition @ 10 uM” value: 6.06% for the first, -3.51% for the second.

Compared with `COc1cc(/C=C2\SC(=N)N(c3ccc(Br)cc3)C2=O)ccc1OCC#N`, `CCO/C(O)=C1\C(C)=NC2=C(C(=O)CC(c3ccc(Cl)cc3)C2)C1c1cc(OC)ccc1OC` (centres unmarked) is higher in “% Inhibition @ 10 uM” value: 1.59% for the first, 19.4% for the second.

Compared with `O=C(c1cccs1)N1CCCCCC1`, `O=C(c1ccncc1)N1CCN(C2CCCCC2)CC1` is higher in “% Inhibition @ 10 uM” value: -4.94% for the first, -3.67% for the second.

First: Cc1ccc(C)c(C(=O)c2ccccc2C(=O)O)c1
Second: COc1ccccc1N1CCN(Cc2ccc(C)cc2C)CC1
The “% Inhibition @ 10 uM” value of the first is lower: -0.128% for the first, 1.63% for the second.

Going from `NC1=NC(=O)NC(C(F)(F)F)(C(F)(F)F)N1` to `CCOC(=O)C1=C(CN2CCC3(CC2)OCCO3)NC(=O)NC1c1cccc(OC)c1OC` (centres unmarked), the “% Inhibition @ 10 uM” value rises from -1.72% to 93%.

Going from `CCC(=O)Nc1sc2c(c1C(=O)Nc1ccccc1)CCCC2` to `CC(=O)Nc1c(C(=O)c2cccs2)oc2ccccc12`, the “% Inhibition @ 10 uM” value falls from 5.24% to 1.15%.

Going from `c1ccc(CN2CCC(NC3CCCCCC3)CC2)cc1` to `c1ccc(CC(NC2CCN(Cc3ccccc3)CC2)c2ccccc2)cc1` (centres unmarked), the “% Inhibition @ 10 uM” value falls from 4.61% to 1.57%.

Going from `N#CC1=C(N)Oc2cc(N)ccc2C1c1ccc(F)c(F)c1` (centres unmarked) to `Cc1coc2cc3oc(=O)c(CC(=O)NCc4ccc5c(c4)OCO5)c(C)c3cc12`, the “% Inhibition @ 10 uM” value falls from 3.01% to 0.895%.
